Laboratory results reported in PMC4336329 (PLoS ONE, 2015).
The whole screen tested about 310,000 compounds, of which about 14,000 (4.5%) showed an effect of 50% or more. The effect is printed as a negative number. Some of the results follow.

The compounds below were run against human ether-à-go-go-related gene (hERG) potassium channel (human, UniProt Q12809) (assay: primary screen, population patch clamp on CHO cells stably expressing hERG).
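Also: peak tail current of the secondary pulse compared with the same well before compound.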

Sequence of human ether-à-go-go-related gene (hERG) potassium channel (Q12809 whole entry, looked up): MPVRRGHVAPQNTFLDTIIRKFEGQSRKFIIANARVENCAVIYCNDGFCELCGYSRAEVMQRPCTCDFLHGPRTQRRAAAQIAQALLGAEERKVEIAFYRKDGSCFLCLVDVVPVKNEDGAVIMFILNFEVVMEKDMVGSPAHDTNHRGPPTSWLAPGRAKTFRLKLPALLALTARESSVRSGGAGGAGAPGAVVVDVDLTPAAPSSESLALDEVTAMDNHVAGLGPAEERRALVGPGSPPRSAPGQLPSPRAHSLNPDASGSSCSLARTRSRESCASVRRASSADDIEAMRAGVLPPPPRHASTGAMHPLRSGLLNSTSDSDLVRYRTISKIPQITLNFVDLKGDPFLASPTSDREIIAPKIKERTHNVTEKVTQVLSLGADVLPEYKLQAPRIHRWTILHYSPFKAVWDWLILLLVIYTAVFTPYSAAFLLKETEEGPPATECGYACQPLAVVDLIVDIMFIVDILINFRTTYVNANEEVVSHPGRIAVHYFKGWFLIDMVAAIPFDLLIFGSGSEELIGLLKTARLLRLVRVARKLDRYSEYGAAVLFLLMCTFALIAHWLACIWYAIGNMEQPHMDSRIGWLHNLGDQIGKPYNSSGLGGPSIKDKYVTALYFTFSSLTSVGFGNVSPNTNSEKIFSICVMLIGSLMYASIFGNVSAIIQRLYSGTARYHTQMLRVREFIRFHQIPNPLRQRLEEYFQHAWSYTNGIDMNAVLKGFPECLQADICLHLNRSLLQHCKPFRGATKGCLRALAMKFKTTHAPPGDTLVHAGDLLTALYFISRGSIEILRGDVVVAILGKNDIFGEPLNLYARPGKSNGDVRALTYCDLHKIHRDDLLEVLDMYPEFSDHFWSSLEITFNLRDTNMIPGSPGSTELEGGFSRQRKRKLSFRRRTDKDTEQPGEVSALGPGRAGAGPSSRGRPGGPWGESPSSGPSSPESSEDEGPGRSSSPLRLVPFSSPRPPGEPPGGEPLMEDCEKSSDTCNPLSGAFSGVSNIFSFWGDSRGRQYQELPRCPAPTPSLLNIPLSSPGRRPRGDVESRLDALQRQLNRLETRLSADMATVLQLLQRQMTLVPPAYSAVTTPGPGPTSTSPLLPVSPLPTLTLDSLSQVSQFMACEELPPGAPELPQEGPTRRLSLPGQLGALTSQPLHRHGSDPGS

| SMILES | hERG current change (%, negative = inhibition) at 10uM |
| --- | --- |
| O=c1c2cc(Br)ccc2nc(-c2cccc(C(F)(F)F)c2)n1O | 24.4% |
| COc1cccc(N2C(=O)C3NN=C(C(=O)CN4C(=O)c5ccccc5C4=O)C3C2=O)c1 (stereo not shown) | 9.7% |
| CCOc1ccc(C(CC(=O)O)NC(=O)c2sc3ccccc3c2Cl)cc1 (stereo not shown) | 12.5% |
| O=C(CN(Cc1ccco1)C(=O)CNS(=O)(=O)c1ccc(F)cc1)NCc1ccc(F)cc1 | -30.8% |
| O=C(NC(=S)Nc1ccc(Br)cn1)c1cncc(Br)c1 | 11.3% |
| COc1ccc(N(CC(=O)NC2CCCC2)S(=O)(=O)c2c(C)[nH]c(=O)[nH]c2=O)cc1 | 10.2% |
| Cc1ccccc1CC(=O)N1CCN(C(=O)c2ccco2)CC1 | 6.8% |
| O=C(CNCCC1=CCCCC1)Nc1ccccc1N1CCCCCC1.O=C(O)C(=O)O | -4.2% |
| COC(=O)c1nn(-c2cccc(C(F)(F)F)c2)ccc1=O | 1.6% |
| Clc1ccc(Oc2nc3ccccc3n3cccc23)cc1 | 18% |
| CC(=O)Nc1ccc(C(=O)Nc2nc(-c3cc(C)n(Cc4ccccc4)c3C)cs2)cc1 | 11% |
| O=C(CN(Cc1ccccc1)S(=O)(=O)c1ccc(F)cc1)NCCC1=CCCCC1 | -0.583% |
| O=C(O)c1cc2c(cc1NC(=O)c1ccccc1OC(F)F)OCCCO2 | 24.4% |
| COc1ccccc1C(CNC(=O)CN(C)S(=O)(=O)c1ccc(C)cc1)N1CCCC1 (stereo not shown) | -28.6% |
| Cc1onc(-c2c(F)cccc2Cl)c1C(=O)N(C)C1CCCCC1 | 2.65% |
| Cc1nc2ccccc2n1CCCOc1ccccc1 | -17.9% |
| COc1cc(CNCCCN2CCOCC2)ccc1OCC(=O)NC(C)(C)C.Cl | 21% |
| N=c1c2c(-c3ccccc3)c(-c3ccccc3)n(Cc3ccccc3)c2ncn1CCO | -37.6% |
| O=C(OCC(=O)N1CCN(C(=O)COC(=O)c2ccncc2)CC1)c1ccncc1 | 6.74% |
| Cc1c(O)ccc(-c2[nH]ncc2-c2nc3ccccc3s2)c1O | 8.96% |
| COP(C)(=O)c1c(C)nn(-c2ccccc2)c1C (stereo not shown) | 8.29% |
| CN(C)C(/C=C/Nc1ccc(F)cc1F)=C(C#N)C#N | 5.04% |

| SMILES | hERG current change (%, negative = inhibition) at 10uM |
| --- | --- |
| C/C(=N\NC(=O)CN(c1ccccc1Br)S(C)(=O)=O)c1ccc2c(c1)OCCO2 | -18.7% |
| Cc1cccc(NC(=O)N2CCC(n3nnc4cc(C)ccc43)CC2)c1 | -62.9% |
| O=[N+]([O-])c1ccc(N2CCN(c3nc(-c4ccc(Cl)cc4)cs3)CC2)cc1 | 1.29% |
| Cn1c(=NC(=O)CS(=O)(=O)c2ccccc2)sc2ccccc21 | 15.8% |
| CCn1ncc(CN2CCC(Oc3cc(C(=O)NC4CC4)ccc3OC)CC2)c1C | -21.5% |
| COC1(OC)N=C(N)C2(C#N)C(c3cccc(Oc4ccccc4)c3)C12C#N (stereo not shown) | -2.83% |
| O=C(Cn1cnc2cc([N+](=O)[O-])ccc2c1=O)NCc1ccc(Cl)cc1 | -19.2% |
| COc1ccc(-c2csc(NC(=O)CN3C(=O)C4CCCCC4C3=O)n2)cc1OC (stereo not shown) | -26.8% |
| O=S(=O)(Cc1ccccc1)NCCc1cccc(Cl)c1 | -5.57% |
| COc1ccccc1OCCNC(=O)c1cccc(S(=O)(=O)NCc2ccccc2)c1 | -35% |
| Cc1onc(-c2ccccc2)c1C(=O)N=C(N)c1ccc(C(F)(F)F)cc1 | 9.84% |
| COc1cc(C(=O)NCc2cccc3ccccc23)cc(Cl)c1OC | 12.6% |
| Nc1cc(C(Cl)=C(Cl)Cl)c(S(N)(=O)=O)cc1S(N)(=O)=O | 16.8% |
| CC(=O)N1CCCN(C(=O)c2ccc3nc(Cc4ccccc4F)oc3c2)CC1 | 7.19% |
| CCOc1ccccc1NC(=O)C1CCN(S(=O)(=O)c2c(C)noc2C)CC1 | 20% |
| COc1ccc(C(=O)N/C(=C\c2cn(C)c3ccccc23)C(=O)NCCCn2ccnc2)cc1 | 26.3% |
| O=Cc1c(Sc2ccccc2)nc2ccccn2c1=O | -0.892% |
| CC1CCCC(C)N1CCCNC(=O)c1cc2c(=O)n(C)c3ccccc3c2n1C (stereo not shown) | 5.79% |
| Cc1cc(C)c(OCC(=O)N/N=C/c2ccc3c(c2)OCO3)c(C)c1 | 2.47% |
| COC(=O)c1ccc(OS(=O)(=O)N(C)C)cc1 | 16.3% |
| Cc1nn(CCCC(=O)NCc2ccc(F)cc2)c(=O)c2nccn12 | 9.12% |
| CC(C)Nc1nnc(Sc2ccc(Cl)cc2[N+](=O)[O-])s1 | -14.7% |

| SMILES | hERG current change (%, negative = inhibition) at 10uM |
| --- | --- |
| Cc1c(Br)c([N+](=O)[O-])nn1CC(=O)Nc1sc2c(c1C(=O)OC(C)C)CCC(C)C2 (stereo not shown) | 17.4% |
| CCn1cc(CCC(=O)NC(C)c2ccccc2)c2ccccc21 (stereo not shown) | 4.59% |
| Cc1ncsc1C(=O)O | 16.1% |
| O=S(=O)(NCc1ccccn1)c1cc(OCC(F)(F)F)ccc1OCC(F)(F)F | -69.9% |
| CCN(C(=O)CSc1nncs1)c1c(N)n(Cc2ccccc2)c(=O)[nH]c1=O | 8.1% |
| COc1cc2[nH]c(=O)n(CCCCCC(=O)NCCCN3CCCC3=O)c(=O)c2cc1OC | 7.87% |
| COc1ccc(CCNC(=O)c2cc3c(=O)n4cccc(C)c4nc3n(Cc3ccco3)c2=N)cc1OC | -80.9% |
| COc1cccc(/C=C/C(=O)OCC(=O)c2c[nH]c3ccccc23)c1 | 13% |
| Cn1ncc2c(=O)n(/N=C/c3ccccc3)cnc21 | 18.6% |
| O=C(Oc1cccnc1)c1cccc(Cl)c1 | 6.44% |
| O=C(Nc1ccc2ccccc2c1)c1ccccc1F | 21.7% |
| CCC(=O)N1CCc2cc(S(=O)(=O)CCC(=O)Nc3ccc(F)c(F)c3)ccc21 | 3.97% |
| Cc1cc(C(=O)CN2C(=O)NC(Cc3c[nH]c4ccccc34)C2=O)c(C)n1C (stereo not shown) | 2.89% |
| COc1ccccc1C(=O)NCCC(=O)NCC(c1ccccc1)N(C)C (stereo not shown) | -0.288% |
| Cc1c[n+](CC(=O)c2ccccc2)cs1.[Br-] | 22% |
| CCc1cccc(NC(=O)CCCSc2nc3ccccc3[nH]2)c1 | -16.7% |
| O=c1[nH]c2cc3ccccc3cc2nc1C(F)(F)F | 19.1% |
| CC(N=C1NS(=O)(=O)c2ccccc21)C(=O)Nc1ccc(F)cc1Cl (stereo not shown) | -7.74% |
| CCn1cc(CNCc2cn(-c3ccccc3C)nc2-c2ccc(OC)c(F)c2)cn1 | -22% |
| O=C(O)C1CCCN1C(=O)Nc1ccc(Cl)cc1 (stereo not shown) | 12.2% |
| CC(NCc1ccccc1)C1COc2ccccc2O1 (stereo not shown) | 2.12% |
| CN(C)CCCNCCCNC(=O)c1ccco1.O=C(O)/C=C/C(=O)O | 1.47% |

| SMILES | hERG current change (%, negative = inhibition) at 10uM |
| --- | --- |
| CCn1c(CNC(=O)c2ccco2)nnc1SCC(=O)Nc1ccc(Br)cc1F | -54.8% |
| O=C(NCCN1CCOCC1)c1cccc(NS(=O)(=O)c2ccc(Br)cc2)c1 | -34.3% |
| COCCCn1c(N)c(C(=O)NCCC(C)C)c2nc3ccccc3nc21 | -31.7% |
| O=C(Cn1nnc(-c2ccccc2)n1)OCc1csc(-c2ccccc2)n1 | -11.3% |
| Cc1c(CC(C)C)nc(N)c(C#N)c1-c1ccccc1 | 12% |
| C=C1c2c(Cl)ccc(O)c2C(O)=C2C(=O)[C@]3(O)C(O)=C(C(N)=O)C(=O)[C@@H](N(C)C)[C@@H]3[C@@H](O)C12.O=C(O)c1cc(S(=O)(=O)O)ccc1O (stereo partly shown) | 12.4% |
| CCC1SC2=NC(C)=C(C(=O)OCCOC)C(c3ccc(C(=O)OC)cc3)N2C1=O (stereo not shown) | -5.89% |
| COC(=O)c1cn(NC(=O)c2cc([N+](=O)[O-])ccc2F)c(=O)c2ccccc12 | -2.81% |
| CC(C)NC(=O)c1ccc2c(c1)N(Cc1ccccc1)C(=O)C(C)(C)O2 | 21.1% |
| Cc1ccc(NC(=O)CSc2ccc3c(c2)OCCO3)c(O)c1 | -1.56% |
| COc1ccccc1/C=N/NC(=O)c1cc2c(ccc3ccccc32)o1 | 19% |
| COc1ccc(S(=O)(=O)N2CCC(C(=O)c3ccc4c(c3)OCCO4)CC2)cc1 | -6.76% |
| COc1ccc(S(=O)(=O)n2nc(OC(=O)c3cccs3)cc2NC(=O)c2cccs2)cc1 | -7.03% |
| CCCC[C@H]1COCCS(=O)(=O)N1Cc1ccc(F)cc1 | -2.39% |
| N#Cc1cccc(NC(=O)CSc2nnc(-c3n[nH]c4ccccc34)o2)c1 | 16.5% |
| Cc1c(C(=O)Nc2ccc3nc(N4CCOCC4)sc3c2)oc2ccccc12 | -8.91% |
| CCC(=O)N1CCc2cc(Br)cc(S(=O)(=O)NC3CCN(Cc4ccccc4)CC3)c21 | -25.3% |
| CC(C)n1c(SCC(=O)N2CCCCC2)nc2c1c(=O)n(C)c(=O)n2C | 15.4% |
| Cc1ccc(C)c(-c2nnc(NC(=O)COc3ccccc3)o2)c1 | 11.2% |
